# Data: PubChem BioAssay AID2675 (National Center for Advancing Translational Sciences (NCATS), 2010)
# About 100 (0.036%) of roughly 280,000 compounds were called active. The inconclusive results got no clear call from the source; some entries with a clear call stand among them for comparison. Calls come from the whole dose curve; as a rule, active = well fitted inhibition curve with a large enough effect in the signal ratio, with a control signal flat (not every such curve was filed as active); inconclusive = small, poorly fitted or top-dose-only effect, or effect the other way, or a change in a side signal; inactive = no such curve, though single readings can be large or run the other way; the % refers to the signal ratio. A potency beside an inconclusive call is a rough fit, not a confirmed value. A note “side channel” means that the fit belongs to a control or component signal, not to the main read-out.
# Target: Muscleblind-like protein 1 (Homo sapiens) (UniProt Q9NR56)
# Sequence of UniProt Q9NR56 (Q9NR56 whole entry, looked up): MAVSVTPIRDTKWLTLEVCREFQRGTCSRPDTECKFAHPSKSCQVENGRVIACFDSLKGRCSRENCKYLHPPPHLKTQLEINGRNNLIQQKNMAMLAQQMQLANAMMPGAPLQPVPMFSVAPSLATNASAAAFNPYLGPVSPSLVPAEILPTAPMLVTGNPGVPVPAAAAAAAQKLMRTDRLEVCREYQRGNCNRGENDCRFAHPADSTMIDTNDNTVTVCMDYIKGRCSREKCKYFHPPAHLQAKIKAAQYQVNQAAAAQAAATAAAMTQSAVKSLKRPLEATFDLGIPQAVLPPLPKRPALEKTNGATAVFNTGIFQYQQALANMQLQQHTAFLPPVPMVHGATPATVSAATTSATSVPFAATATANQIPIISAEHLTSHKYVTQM
# Assay: qHTS Assay for Inhibitors of MBNL1-poly(CUG) RNA binding
# Settings: TR-FRET MBNL1-His/biotin-(CUG)12 binding, 665/545 ratio; series mostly up to 57.5 µM
# How it was run: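 Inhibition of protein-RNA binding appears as loss of TR-FRET between terbium anti-His antibody on MBNL1-His and streptavidin-XL665 on biotin-(CUG)12. Activity is normalized to buffer-only and uninhibited-complex controls.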
# Potency is the fitted concentration of half-maximal effect; tags give direction and shape of the fitted curve or compound fluorescence and quenching.
row,Compound,Potency
1,CCN(C(=O)CN1C(=O)S/C(=C\c2cccc(OC)c2)C1=O)C1CCS(=O)(=O)C1 (stereo unspecified),"inconclusive: 12.6 µM [quencher, side channel, partial curve]"
2,Nc1ccc(Sc2ccc([N+](=O)[O-])cc2)cc1,"inconclusive: 25.1 µM [quencher, side channel, partial curve]"
3,O=C(N/N=C/c1ccc(OC(=O)c2ccc([N+](=O)[O-])cc2)cc1)c1cccnc1,"inconclusive: 2.82 µM [quencher, side channel, partial curve]"
4,CCN1/C(=C2\C(=O)N(C)C(=S)N2C)C=Cc2cc(OC)ccc21,"inconclusive: 14.1 µM [quencher, side channel, partial curve]"
5,CCCNC(=O)c1ccc2c(=O)c(O)c(-c3ccc(OC)cc3)[nH]c2c1,"inconclusive: 2.82 µM [quencher, side channel, full curve, poor fit]"
6,C/C(=N\N=C\c1ccccc1F)c1nnn(-c2nonc2N)c1C,inactive
7,O=C(CN1C(=O)COc2ccc(Cl)cc21)Nc1ccc(N2CCOCC2)cc1,"inconclusive: 17.8 µM [quencher, side channel, partial curve]"
8,Cc1ccccc1-c1ccc(C(=O)NCc2ccccc2)o1,inactive
9,COc1ccc(-c2csc(NC(=O)CN3C(=O)CCC3=O)n2)cc1OC,"inconclusive: 0.0891 µM [fluorescent, side channel, full curve]"
10,Cc1cccc(-c2nnc(SCC(=O)NC3CC3)n2C)c1,"inconclusive: 11.2 µM [quencher, side channel, partial curve]"
11,COc1cc(/C=C2\C(=O)N(c3ccc(S(N)(=O)=O)cc3)N=C2C)ccc1OC(=O)c1ccco1,"inconclusive: 25.1 µM [inhibitor, single point]"
12,Cc1ccc(-n2nc3c(=S)[nH]nc(C)c3c2C)cc1,"inconclusive: 39.8 µM [fluorescent, side channel, partial curve]"
13,CCN(CC)c1ccc(/C=N/n2nnnc2N)c(O)c1,"inconclusive: 31.6 µM [quencher, side channel, partial curve]"
14,O=C(O)c1cc([N+](=O)[O-])ccc1C(=O)Nc1ccccc1,"inconclusive: 20 µM [quencher, side channel, partial curve]"
15,O=C(Nc1ccon1)C12CC3CC(C1)CC(n1cnc([N+](=O)[O-])n1)(C3)C2,"inconclusive: 31.6 µM [quencher, side channel, partial curve]"
16,FC(F)(F)c1ccc(Oc2ccc3ccccc3c2Br)nc1,"inconclusive: 0.251 µM [fluorescent, side channel, partial curve]"
